About 2,200 (0.71%) of roughly 310,000 compounds showed an effect of 50% or more. Effects have a minus sign here. This is one part of the list.
target: human ether-à-go-go-related gene (hERG) potassium channel (human, UniProt Q12809); assay: primary screen, population patch clamp on CHO cells stably expressing hERG
Sequence (Q12809 whole entry, looked up): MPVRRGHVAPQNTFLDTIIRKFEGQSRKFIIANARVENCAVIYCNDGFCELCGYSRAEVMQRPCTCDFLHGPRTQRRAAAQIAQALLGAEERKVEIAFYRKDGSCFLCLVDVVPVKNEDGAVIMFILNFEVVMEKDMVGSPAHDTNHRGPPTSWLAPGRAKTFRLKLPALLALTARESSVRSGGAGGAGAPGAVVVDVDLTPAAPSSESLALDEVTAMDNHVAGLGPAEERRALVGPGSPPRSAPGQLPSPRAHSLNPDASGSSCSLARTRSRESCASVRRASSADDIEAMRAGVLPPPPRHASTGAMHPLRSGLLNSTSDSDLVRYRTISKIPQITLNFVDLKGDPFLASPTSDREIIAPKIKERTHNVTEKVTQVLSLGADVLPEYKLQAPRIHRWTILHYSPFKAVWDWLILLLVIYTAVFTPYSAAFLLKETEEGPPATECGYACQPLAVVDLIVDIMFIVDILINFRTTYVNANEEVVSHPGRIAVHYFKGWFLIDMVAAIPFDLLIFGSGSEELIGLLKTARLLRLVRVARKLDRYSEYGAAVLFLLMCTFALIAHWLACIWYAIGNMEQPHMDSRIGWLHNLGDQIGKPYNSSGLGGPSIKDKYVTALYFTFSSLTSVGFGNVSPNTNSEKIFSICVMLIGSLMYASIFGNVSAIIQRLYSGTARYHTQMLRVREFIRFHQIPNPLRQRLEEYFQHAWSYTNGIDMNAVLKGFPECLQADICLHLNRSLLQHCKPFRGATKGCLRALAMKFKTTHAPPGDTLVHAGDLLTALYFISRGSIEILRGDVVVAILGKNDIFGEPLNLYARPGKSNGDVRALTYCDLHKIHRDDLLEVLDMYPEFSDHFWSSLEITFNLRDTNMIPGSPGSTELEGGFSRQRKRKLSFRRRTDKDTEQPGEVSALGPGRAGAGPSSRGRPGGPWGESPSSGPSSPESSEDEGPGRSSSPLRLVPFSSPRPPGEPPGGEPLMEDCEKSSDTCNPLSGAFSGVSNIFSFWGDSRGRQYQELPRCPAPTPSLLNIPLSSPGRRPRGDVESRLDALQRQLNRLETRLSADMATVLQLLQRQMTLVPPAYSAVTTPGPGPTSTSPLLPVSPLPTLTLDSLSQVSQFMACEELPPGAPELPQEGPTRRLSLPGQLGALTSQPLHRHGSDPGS

Compound | hERG current change (%, negative = inhibition) at 1uM [%]
COc1cccc(N2CCN(C(=O)CN(C)S(=O)(=O)c3ccc4c(c3)c(=O)n(C)c(=O)n4C)CC2)c1 | 11.1
Cc1cccc(N2Cc3ccc(Br)cc3C2)c1 | 10.6
COc1ccccc1-c1cc(C(=O)N2CCc3ccccc3C2)c2ccccc2n1 | 13.2
COc1cc(/C=C/c2nc(-c3ccccc3O)n[nH]2)cc(OC)c1OC | 14.6
O=C(CSc1n[nH]c(-c2ccco2)n1)Nc1ccccc1Cl | 12.2
CCC(Oc1ccccc1F)C(=O)NCCN1CCOCC1 (stereo not drawn) | 12.4
COc1ccc(-c2ccc(OC)c([C@H]3[C@H]4C=CC[C@@H](C)[C@@H]4C(=O)N3Cc3ccccc3)c2)cc1 | 9.57
Cc1sc(N/N=C/c2cc([N+](=O)[O-])ccc2O)nc1-c1ccccc1 | 13.1
CCOC(=O)N1CCN(C(=O)C2CCCN(c3nc4ccc(OCC)cc4s3)C2)CC1 (stereo not drawn) | -3.97
O=C(OCc1ccc(Cl)c(Cl)c1)c1cnccn1 | 12.3
O=c1cnnc(Nc2cccc(C(F)(F)F)c2)[nH]1 | 14.2
CCOC(=O)c1ccc(CNCc2ccc(Br)cc2)cc1 | -2.21
Cc1ccc(-n2c(-c3cn(C)nc3C)n[nH]c2=S)cc1 | 18.4
CC(=O)n1nc(-c2ccccc2)nc1NCc1ccc(F)cc1 | 13.2
CC1CCc2c(sc3nc(CN4CCN(S(=O)(=O)c5ccccc5[N+](=O)[O-])CC4)[nH]c(=O)c23)C1 (stereo not drawn) | -0.366
Cc1c(C(=O)O)cnc2c([N+](=O)[O-])cnn12 | 21.1
CC(O)CNCCOc1ccccc1OCc1ccccc1.O=C(O)C(=O)O (stereo not drawn) | 14
CCN(CC)CCNC(=O)c1cn(CC)c2cc(N3CCN(C(=O)c4ccco4)CC3)c(F)cc2c1=O.Cl | 4.66
O=C(c1ccc(Br)cc1)N1CCN(Cc2ccccc2)CC1 | -9.98
CC(=O)Nc1ccccc1OCC(O)CS(=O)(=O)c1ccc(C(F)(F)F)cn1 (stereo not drawn) | 15
Cc1cc(C(=O)OC(C)C(=O)NC2CCCCC2)c(C)o1 (stereo not drawn) | 8.09
COc1ccc(NC(=O)C2CCCN2c2ccc(OC)c(OC)c2)cc1OC (stereo not drawn) | 13.3

Compound | hERG current change (%, negative = inhibition) at 1uM [%]
O=C(COC(=O)C1CC(=O)N(Cc2ccccc2)C1)Nc1ccccc1F (stereo not drawn) | 12.4
CC(C)(C)c1ccc(C(=O)NCC(=O)N2CCNC(=O)C2)cc1 | 1.06
O=C(Nc1cccc2c1CCCC2)c1ccncc1 | 9.88
O=C(O)c1cccc(N2C(=O)CSC2=S)c1 | 11.7
O=C(CCCN1C(=O)[C@H]2CC=CC[C@H]2C1=O)NCc1nc(-c2ccccc2)no1 | 14.9
COc1ccc(C)cc1NC(=O)CSc1nnc(-c2ccc(Br)cc2)o1 | 0.856
COc1ccc(C2N=C(c3ccccc3)NO2)cc1OC (stereo not drawn) | 12.5
Cc1ccc(C(=O)COC(=O)c2cccc([N+](=O)[O-])c2)s1 | 2.6
CCC(=O)N1CCc2cc(S(=O)(=O)CCC(=O)N(C)c3ccc(OC)cc3)ccc21 | 2.07
Cc1c(NP(=S)(C(C)(C)C)C(C)(C)C)c(=O)n(-c2ccccc2)n1C | 4.41
Cc1oc(-c2ccccc2Cl)nc1CSc1nc2c(c(=O)[nH]1)CCC2 | 11
CCC1=NN(C(=O)C(=O)Nc2ccc(Br)cc2)C(O)(C(F)(F)F)C1 (stereo not drawn) | 13.1
CCOC(=O)CC1COCCN1Cc1cn(C)nc1-c1ccccc1F (stereo not drawn) | 6.37
COC(=O)c1ccc(CSc2ccc(S(=O)(=O)N3CCCCC3)cn2)cc1 | 16.9
C=CCn1c(SCC(=O)Nc2nccs2)nnc1-c1ccco1 | -10.8
NC(=O)c1ccc(-n2c(CCC(=O)O)ccc2-c2cccs2)cc1 | 8.72
CCCCN(C)CCCNC(=O)c1cn(CC)c2ccc(S(=O)(=O)N3CCOCC3)cc2c1=O | 18.8
CCOC(=O)c1c(C#N)cnn1-c1ccc(C)cc1 | 6.65
CCN1C(=O)/C(=C\c2ccncc2)SC1=Nc1ccc(C)c(C)c1 | 4.3
O=S(=O)(Oc1ccc(C(=S)N2CCOCC2)cc1)c1ccc(Cl)cc1 | 17.2
O=C(Nc1ccc(F)cc1F)C1CCCN1S(=O)(=O)c1ccc(-c2ccc(=O)[nH]n2)s1 (stereo not drawn) | -0.985
O=C(CCN1C(=O)c2ccccc2C1=O)Nc1ccccc1C(F)(F)F | 3.27

Compound | hERG current change (%, negative = inhibition) at 1uM [%]
COc1ccc(-n2nc(C(=O)NCc3ccco3)c3c4ccccc4n(C)c3c2=O)cc1Cl | 7.91
CCC(c1nnnn1C(C)C)N1CCN(C2CCCC2)CC1.Cl (stereo not drawn) | 8.37
CCOc1ccccc1Nc1ncnc2c1cnn2-c1ccccc1 | -0.541
CCc1ccc(C(=O)NC(C(=O)O)C(C)C)cc1 (stereo not drawn) | -1.76
COc1ccc(/C=C2\Sc3ccc(C(=O)NCCN4CCCCCC4)cc3N(C)C2=O)cc1 | 8.93
COc1ccc(C(=O)NCC(=O)OCC(=O)c2cc(OC)c(OC)c(OC)c2)cc1OC | 15.4
COc1ccc(N2CCN(C3CCCN(Cc4ccc(F)c(F)c4)C3)CC2)cc1 (stereo not drawn) | -10.9
COc1ccc(C2SCC(=O)N2c2nnc(C34CC5CC(CC(C5)C3)C4)s2)cc1 (stereo not drawn) | 8.63
CN(C)c1ccc(/C=C(\C#N)C(=O)Nc2nc3c(s2)CCN(Cc2ccccc2)C3)cc1 | 17.9
Cn1c(Cn2c3ccccc3c3ccccc32)n[nH]c1=S | 10.4
NC(=O)c1ccc(NC(=O)COC(=O)c2ccccc2Nc2ccccc2)cc1 | -2.98
CCCN1Cc2cccc(C(=O)Nc3ccc(C)cc3)c2C1=O | 20.6
CCOC(=O)CSC1=C(C#N)C(c2ccc3c(c2)OCO3)CC(=O)N1 (stereo not drawn) | 14
COc1cccc(CSc2nccn2C)c1 | 17
O=C(NCCN1CCOCC1)c1ccc(Cl)cc1[N+](=O)[O-] | 7.62
O=C(COC(=O)c1ccccc1O)NCC1COc2ccccc2O1 (stereo not drawn) | 18.5
Cc1cc(C)n(-c2ccc(C(=O)NCCCN3CCOCC3)cc2)n1 | 13.4
CCOc1ccc(C(=O)COC(=O)Cc2n[nH]c(=O)c3ccccc23)cc1 | 0.946
NC(=O)c1ccc(-c2nnn(CC(=O)Nc3cccc(S(=O)(=O)N4CCCC4)c3)n2)cc1 | 11.6
O=C(COC(=O)c1cccnc1Cl)Nc1nc(-c2ccccc2)cs1 | 2
O=C(NCC(=O)N(c1ccc(F)cc1)C(C(=O)NC1CCCC1)c1cccnc1)c1cccs1 (stereo not drawn) | 6.76
CCOc1ccc2nc(NC(=O)c3ccc(S(=O)(=O)N4CCOCC4)cc3)sc2c1 | 9.49

Compound | hERG current change (%, negative = inhibition) at 1uM [%]
CCCCSc1nnc(-c2ccccc2)c2ccccc12 | 4.51
Cn1c(=O)c2c(-c3ccccc3)n(C3CCCCC3)cc2n(C)c1=O | 10.5
CCC(=O)Oc1oc(-c2ccccc2)nc1C=Nc1ccccc1OC | 12.2
O=C(CN1CCc2ccccc21)NC(=O)NCc1ccccc1 | 7.58
Cc1cccc(NC(=O)CCNS(=O)(=O)c2cc(Br)cnc2N)c1C | 2.32
C[N+]1(C)[C@@H]2CC[C@H]1CC(OC(=O)C(c1ccccc1)c1ccccc1)C2.[I-] (stereo partly drawn) | 14.4
O=C(Cc1ccccc1)N/N=C/c1ccc(S(=O)(=O)[O-])o1 | 1.68
C/C(=N\OC(=O)c1c(-c2ccccc2Cl)noc1C)c1nccs1 | -5.38
Cc1cc(Nc2ccc3c(c2)OCCO3)n2ncnc2n1 | -5.65
CCOC(=O)CNC(=O)CNC(=O)c1nn(-c2ccc(OC)c(Cl)c2)c(=O)c2ccccc12 | 11.4
O=C(CSc1ncn[nH]1)NCCc1ccc(Cl)cc1 | 0.344
CCOc1ccccc1C1C(C(=O)Nc2ccc(OC)cc2)=C(C)Nc2nc(CCCO)nn21 (stereo not drawn) | 2.64
COc1cc(NC(=O)C2CC(c3cccc(OC)c3OC)=NO2)cc(OC)c1OC (stereo not drawn) | -5.9
CCN(CC)S(=O)(=O)c1ccc(NS(=O)(=O)c2ccc3oc(=O)[nH]c3c2)cc1 | 18
COc1ccccc1N1CCN(C(=O)CN(c2cc(C)cc(C)c2)S(C)(=O)=O)CC1 | 7.84
CC(NC(=O)c1cccnc1)C(c1cccs1)N1CCN(c2ccccc2F)CC1 (stereo not drawn) | 9.11
COc1ccc(C)cc1N(C(=O)c1snc(C(N)=O)c1N)C(C(=O)NC1CCCC1)c1ccc(F)cc1 (stereo not drawn) | 7.96
Cn1c(=O)oc2cc(S(=O)(=O)NCCCN3CCCC3=O)ccc21 | 17.9
CCC(=O)Nc1ccc(S(=O)(=O)N2CCOCC2)cc1 | 1.54
CC1=NN(c2ccc(C)cc2)C(=O)/C1=C\C=C\c1ccccc1 | 7.48
CC(=O)N1CCc2cc(Br)cc(S(=O)(=O)N3CCCCCC3)c21 | 0.744
